The values that follow come from PubChem BioAssay AID488969 (Vanderbilt High Throughput Screening Facility, 2010).

Whole data set: some 110,000 compounds, median “z-score” near -0.1, cut for the highest 2% near 2. This is one part of the list. Active and inactive are the calls of the source.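 Rule for the calls: active = z-score in the third read window above 3 or below -3; inactive = the rest.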

The target of this assay is Metabotropic glutamate receptor 8 (Rattus norvegicus) (UniProt P70579). Briefly: rat mGluR8 modulators via GIRK flux, primary screen, cell-based, thallium flux, HTS (AID 488969). The settings on record: HEK293 rat mGluR8, GIRK (G protein-gated inwardly rectifying potassium channel) thallium flux, FluoZin2; at 10 µM; stronger effect = higher value; submaximal glutamate (EC20) added with thallium.
UniProt P70579, sequence (P70579 whole entry, looked up): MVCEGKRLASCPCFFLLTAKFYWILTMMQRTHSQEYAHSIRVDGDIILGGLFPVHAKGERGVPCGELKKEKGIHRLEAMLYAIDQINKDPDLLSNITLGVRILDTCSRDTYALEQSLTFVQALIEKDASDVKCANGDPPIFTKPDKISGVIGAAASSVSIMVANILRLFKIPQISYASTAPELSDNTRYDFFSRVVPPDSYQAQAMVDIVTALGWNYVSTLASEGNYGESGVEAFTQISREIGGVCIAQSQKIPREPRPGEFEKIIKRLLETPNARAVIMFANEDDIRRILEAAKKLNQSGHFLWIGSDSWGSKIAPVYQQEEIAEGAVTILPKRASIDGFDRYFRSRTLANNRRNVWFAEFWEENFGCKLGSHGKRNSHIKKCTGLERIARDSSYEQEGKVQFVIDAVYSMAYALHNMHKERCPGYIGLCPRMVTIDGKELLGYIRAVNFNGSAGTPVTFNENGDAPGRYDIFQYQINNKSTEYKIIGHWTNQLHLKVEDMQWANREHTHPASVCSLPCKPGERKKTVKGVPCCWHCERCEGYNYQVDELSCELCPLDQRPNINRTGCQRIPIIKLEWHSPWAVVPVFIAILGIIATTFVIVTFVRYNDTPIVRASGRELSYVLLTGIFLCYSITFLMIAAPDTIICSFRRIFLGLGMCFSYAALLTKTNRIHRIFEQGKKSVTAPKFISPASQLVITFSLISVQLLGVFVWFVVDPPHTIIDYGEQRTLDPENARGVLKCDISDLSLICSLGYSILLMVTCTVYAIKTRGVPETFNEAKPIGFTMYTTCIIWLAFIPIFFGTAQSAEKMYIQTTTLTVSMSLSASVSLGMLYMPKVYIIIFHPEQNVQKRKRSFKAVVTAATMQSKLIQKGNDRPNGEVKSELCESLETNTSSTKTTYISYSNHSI
Molecule `Cc1cc(=O)n(C)c(=O)n1CCCCCOc1cccc([N+](=O)[O-])c1` had a z-score of -0.28.

Take `COc1ccc(Cl)cc1NC(=S)NCc1ccccn1`: the z-score was -0.0363.

Molecule `Cn1c(CS(=O)Cc2c(Cl)cccc2Cl)nnc1SCc1c(Cl)cccc1Cl` (configuration not stated) gave a z-score of -0.441.

Turning to `O=C(CSc1nc2ccccc2[nH]1)Nc1c(F)cccc1F`, the z-score is -0.135.

`CC(=O)Nc1ccc(S(=O)(=O)N(C)CC(=O)OCC(=O)Nc2cccnc2Cl)cc1` registered a z-score of -0.172.

`CCOC(=O)c1c(C)n(C)c2ccc(OCC(O)Cn3nc(C)c(Br)c3C)cc12` (configuration not stated) came in with a z-score of 0.00821.

`CCCC(=O)Nc1nc2ccc(C(=O)OCC)cc2s1` showed a z-score of 0.135.

Molecule `C=CCNc1sc(C(=O)c2ccccc2)c(N)c1-c1nc2ccccc2s1` had a z-score of -0.131.

The molecule `CCOc1ccc(S(=O)(=O)NCCC2=CCCCC2)c2ccccc12` came in with a z-score of -0.345.

For the molecule `O=C1NC(=S)S/C1=C\c1ccc(SCc2ccccc2)o1`, the z-score is active: 6.47.

`COc1cccc(OCc2cc(/C=N/NC(=O)c3nc(Cl)c(Cl)c(N)c3Cl)ccc2OC)c1` had a z-score of -0.384.

As to `Cc1ccc(C)c(OCC(=O)N/N=C/c2c(C)nn(-c3ccccc3)c2Cl)c1C`, the z-score is -0.185.

For the molecule `Cc1nc2cc(CO)ccc2n1C`, the z-score is -0.273.

`Oc1c(C=NCc2ccc(F)cc2)[nH]c2ccc(Br)c(Cl)c12` returned a z-score of -1.56.

As to `Cc1ccccc1-n1c(SCC(=O)c2c(N)n(C)c(=O)n(C)c2=O)nnc1-c1cccnc1`, the z-score was -0.348.

Turning to `N#C/C(=C/c1ccco1)c1nc2ccccc2s1`, the z-score is -0.219.

Take `O=Cc1ccc(OCc2ccccn2)cc1`: the z-score is 0.197.

With `CCCCCC(=O)NC(=S)Nc1ccc(NC(=O)c2ccco2)cc1`, the z-score was determined as 0.064.

With `COc1cc2[nH]c(=O)n(CCCCCC(=O)NCCCN3CCC(C)CC3)c(=O)c2cc1OC`, the z-score is -0.231.

As for `CCCCOc1ccc(C(=O)N2CC(C)OC(C)C2)cc1` (configuration not stated), the z-score is -0.154.

`COc1ccc(-n2c(C)nn(C)c2=O)cc1` displayed a z-score of 0.0161.

Molecule `Cc1oc2ccc(O)cc2c1C(=O)OC(C)C` showed a z-score of -0.379.

The molecule `O=C(c1ccc(F)cc1)N1C2CCC1CC(O)(c1ccc(F)cc1)C2` (configuration not stated) came in with a z-score of -0.612.

In the case of `Cc1ccc(C2=Nc3ccccc3N=C(c3ccco3)C2)c(O)c1`, the z-score is -0.197.

Regarding `CCCn1nnc(NC(=O)c2ccc(-c3cccc(Cl)c3)o2)n1`, the z-score is 0.347.

Take `CCO/N=C(/C)c1c(O)c(C)c(-c2ccccc2)n(-c2ccccc2)c1=O`: the z-score was -0.116.

`CCOC(=O)c1ccc(NC(=O)CSc2ncccn2)cc1` had a z-score of -0.0145.

As for `CCn1c2ccccc2c2cc(NC(=O)CSc3nnc(-c4ccc(OC)cc4)n3N)ccc21`, the z-score was -0.318.

Take `O=C(Nc1ccc(F)cc1)C(Sc1nnc2ccccn12)c1ccccc1` (configuration not stated): the z-score is -0.216.

The molecule `CC(=O)N1C(C(=O)O)CSC1c1ccc(C)cc1` (configuration not stated) showed a z-score of 0.63.

`CCCCCn1c(SCC(=O)OC)nc2c1c(=O)[nH]c(=O)n2C` displayed a z-score of 2.01.

`CCOC(=O)c1ccc(CNC(=O)CCC(=O)O)cc1`: the z-score was -0.433.

`COc1ccc(N2CCN(CC(=O)Nc3sccc3C#N)CC2)cc1` came in with a z-score of -0.283.

On to `COc1cccc(C(=O)NC2=NCCS2)c1`, for which the z-score was -0.478.

The molecule `O=C(c1cnn2c(C(F)(F)F)cc(-c3cccs3)nc12)N1CCN(C(c2ccccc2)c2ccccc2)CC1` came in with a z-score of -1.36.

The molecule `COC(=O)c1ccc(SC)cn1` gave a z-score of -0.136.

Molecule `CCCN(CCC)C(=O)CP(=O)(c1ccccc1)c1ccccc1` returned a z-score of -0.0382.

`c1ccc(CC2CCN(C(c3cccs3)c3nnnn3C3CCCC3)CC2)cc1` (configuration not stated) registered a z-score of -0.0415.

Turning to `COc1cccc(-c2nc(CS(=O)CC(=O)O)c(C)o2)c1` (configuration not stated), the z-score amounted to 0.0172.

The molecule `CCOC(=O)CSc1nc(-c2ccccc2)nc2ccccc12` showed a z-score of -0.121.

Molecule `CSc1ccc(S(=O)(=O)Nc2ccc(NC(C)=O)cc2)cc1` gave a z-score of 0.423.

`COc1cc(NC(=O)c2ccco2)c(OC)cc1NC(=O)CCC(=O)Nc1cc(C)cc(C)c1` gave a z-score of -0.284.

Turning to `C=CCn1c(N)c(C(=O)OC(C)(C)C)c2nc3ccccc3nc21`, the z-score was active: -3.18.

Molecule `COc1ccc(-n2nc(C(=O)NCC(=O)NCC3CCCO3)c3ccccc3c2=O)cc1` (configuration not stated) displayed a z-score of 0.0632.

`CCOC(=O)c1cc(C(=O)OCC)cc(-n2cc(O)c(C(=O)OCC)n2)c1`: the z-score was -0.0997.

For `CN(CC(=O)Nc1ccc(S(=O)(=O)N2CCCC2)cc1)Cc1ccc(Cl)cc1`, the z-score was -0.459.

In turn, `Nc1c(S(=O)(=O)c2cccs2)c2nc3ccccc3nc2n1CCc1ccccc1` registered a z-score of 0.0551.

In turn, `O=C1c2ccccc2C(=O)N1CSc1nnc(Nc2ccccc2F)s1` yielded a z-score of -0.0871.

`Cc1cc(C)nc(NC(=O)c2cc([N+](=O)[O-])cc([N+](=O)[O-])c2)n1` came in with a z-score of -0.0784.

For `Fc1ccc(NC(=S)NCc2ccccn2)cc1`, the z-score is -0.286.

On to `CCCOc1ccc(/C(O)=C2/C(=O)C(=O)N(CCN(C)C)C2c2ccncc2)cc1` (configuration not stated), for which the z-score was determined as 0.268.

`Cc1cc(C)c(C)c(S(=O)(=O)Nc2ccc(OCC(=O)O)cc2)c1C` registered a z-score of -0.015.

`CCCOC(=O)c1ccc(Nc2nc(C)cc(=O)[nH]2)cc1`: the z-score was 0.778.

With `CCCCc1c(C)c2cc(C)ccc2[nH]c1=O`, the z-score was found to be 0.186.

Consider `CCOC(=O)C(C(C)=O)C(c1ccc(OCCC(C)C)cc1)C(C(C)=O)C(=O)OCC` (configuration not stated), for which the z-score is 0.169.

On to `COc1ccc(C(NC(=O)CNC(C)=O)C(=O)Nc2ccc(C(C)C)cc2)cc1` (configuration not stated), for which the z-score turned out to be 0.131.

Molecule `O=C1CN(Cc2ccccc2)C(=NCc2ccco2)S1` gave a z-score of -0.501.

`CS(=O)(=O)N(CC(N)=O)Cc1ccc(Cl)cc1` showed a z-score of 0.738.

Take `Cc1nc2ccccn2c1C(=O)CSc1ccccc1Cl`: the z-score was determined as 0.099.

Consider `Cc1ccc(S(=O)(=O)NC2=NCN(C3CCN(Cc4ccccc4)CC3)CN2)cc1`, for which the z-score was -0.332.

`Cc1ccc(S(=O)(=O)N(C)c2ccc(OCC(=O)NCc3ccco3)cc2)cc1` displayed a z-score of -0.403.

`NS(=O)(=O)c1ccc(CNC(=O)CC23CC4CC(CC(C4)C2)C3)cc1` displayed a z-score of -0.125.

For `O=C(NCCc1ccccc1)c1ccc(Cl)nc1`, the z-score was -0.316.

In the case of `CC(=O)c1cccc(NC(=O)COc2cc3oc(=O)c(CC(C)O)c(C)c3cc2Cl)c1` (configuration not stated), the z-score is -1.11.

Turning to `Cc1ccc(CN(Cc2ccco2)C(=S)NCC(=O)O)cc1`, the z-score was found to be 1.34.

`CCCCNc1cc(=O)oc2ccccc12` returned a z-score of -0.226.

Molecule `COc1cc(OC)cc(C(=O)NC2=NCCS2)c1` displayed a z-score of -0.162.

`CC(CCc1ccccc1)NC(=O)COC(=O)CC1CC2CCC1C2` (configuration not stated) returned a z-score of -0.285.

For the molecule `COc1ccc(CCNC(=O)CCC(=O)N2CCN(S(=O)(=O)c3ccccc3)CC2)cc1OC`, the z-score was -0.162.

As to `COc1ccc(-c2oc3ncn(CCN4CCOCC4)c(=N)c3c2-c2ccc(OC)cc2)cc1`, the z-score is 2.6.

`Cc1cccc(NC(=O)Cn2cc(C(=O)c3ccco3)c3ccccc32)c1` had a z-score of 0.00152.

`COc1ccc(CCNC(=O)C2CCN(S(=O)(=O)c3cc(OC)ccc3OC)CC2)cc1` showed a z-score of -0.206.

In the case of `CCn1nnnc1SCC(=O)c1ccc(C)cc1C`, the z-score was -0.0173.

For the molecule `CC(C)Nc1nc(NC(C)C)nc(C(N)=O)n1`, the z-score was -0.413.

For `CC(=O)N1CCN(C(=S)c2ccc(Cl)cc2)CC1`, the z-score was -0.082.

Regarding `CCC(C)(C)n1nnnc1C(c1ccc2ncccc2c1)N1CCN2CCCC2C1` (configuration not stated), the z-score is -0.475.

Turning to `Cc1[nH]n(-c2ccc(Cl)cc2)c(=O)c1/C=N/n1c(C)nc2ccccc2c1=O`, the z-score was found to be 0.316.

`Cc1ccc(C)c(-n2c(CNc3ccc(F)cc3)nnc2SCC(N)=O)c1` showed a z-score of -0.64.

For `COc1ccccc1OC(=O)c1ccc(S(=O)(=O)N(C)C)cc1`, the z-score is -0.379.

For the molecule `CN(CC(=O)Nc1ccc(Cl)cc1)c1ccc(S(=O)(=O)N2CCCCC2)cc1[N+](=O)[O-]`, the z-score is -0.23.

In the case of `Cc1cc(C(=O)Nc2ncn[nH]2)ccc1[N+](=O)[O-]`, the z-score was found to be 0.428.

With `COc1ccc(-c2cc(C#N)nc(N3CCNCC3)n2)cc1`, the z-score was 2.07.

In turn, `CCCCC(=O)N/N=C(\C)CC(=O)Nc1cc(Cl)ccc1OC` registered a z-score of -0.0637.

Take `Oc1ccc(C2=NNC(=NCc3ccc4c(c3)OCO4)SC2)c(O)c1`: the z-score came out at 0.542.

Turning to `Cc1cc(Nc2ccccc2C(=O)O)nc2nc3ccccc3c(=O)n12`, the z-score was -0.163.

Take `COc1cccc(/C=C/C(=O)c2ccc(C)c([N+](=O)[O-])c2)c1`: the z-score was -0.0159.

`CC(C)CC(=O)Nc1ccc(Oc2ccc(NC(=O)CC(C)C)cc2)cc1` had a z-score of 0.129.

The molecule `COc1cc(S(=O)(=O)n2nnc3ccccc32)c(OC)cc1Cl` gave a z-score of 1.77.

Molecule `Cc1nn(Cc2ccccc2)c2c1C(c1ccc(Cl)cc1)C(C#N)=C(N)O2` (configuration not stated) gave a z-score of -0.00625.

With `CCOC(=O)CSc1nnc(-c2ccccc2OC)o1`, the z-score is active: -3.7.

`COc1cccc(-n2nnc3c(=O)n(Cc4c(F)cccc4Cl)cnc32)c1` had a z-score of -0.221.

Take `C[N+]1(CC(=O)Nc2ccc(F)cc2)CCN(C(=O)c2ccco2)CC1`: the z-score was -0.00484.

The molecule `O=C(COC(=O)c1cccs1)NCCN1C(=O)CSC1=O` displayed a z-score of 0.00636.

As to `N#CC1=C(N)C2=CCCC[C@H]2[C@H](c2ccc(Br)cc2)C1(C#N)C#N`, the z-score is -0.535.

`CCN(c1ccc(NC(=O)COC(=O)CCc2nc3ccccc3n2-c2ccccc2)cc1)C(C)C`: the z-score was -0.153.

As for `O=C(COC(=O)CCCOc1ccc(Cl)cc1Cl)NCc1ccccc1`, the z-score was -0.469.

Molecule `CC(=O)NCCN=Cc1sc2ccccc2c1O` gave a z-score of -0.126.

For `COc1cc(C(=O)N/N=C/c2ccsc2C)cc(OC)c1OC`, the z-score amounted to 0.0664.

For the molecule `c1ccc(OCc2nc3ccccc3s2)cc1`, the z-score was found to be 0.0173.

In the case of `Cc1nc(-c2ccc(NC(=O)C3CCCCC3)cc2)cs1`, the z-score was -0.0739.

`COC(=O)c1ccc(NC(=O)CNC(=O)C2CCCCC2)c(C)c1` showed a z-score of 0.438.

On to `N#C/C(=C\c1cn(Cc2ccccc2C#N)c2ccccc12)C(=O)NCc1cccs1`, for which the z-score was -0.0115.

`COc1ccccc1CN1C(=O)CN(C2CCCCCC2)C(=O)C1c1ccc(F)cc1` (configuration not stated) showed a z-score of -0.515.

Consider `CCCN(CCC)C(=S)NC(=O)c1ccc(-c2ccccc2)cc1`, for which the z-score was -0.959.

The molecule `CCC(C)NC(=O)CCc1nc2ccccc2n1-c1ccccc1` (configuration not stated) showed a z-score of -0.283.

In the case of `Cc1ccc(OCCOCCNC(C)C)c(Br)c1`, the z-score came to 0.634.

Molecule `C=CCc1c(C)nc(-c2ccccc2)nc1N/N=C/c1ccccc1` yielded a z-score of -0.265.

`CCOC(=O)c1ccccc1NC(=O)/C(C)=C/C(=O)O` returned a z-score of -0.283.

`CC1CCCN(C(=O)CSc2cnc3ccccc3n2)C1` (configuration not stated): the z-score is -1.09.

In turn, `COc1ccc(-n2c(C)nc(=O)c(-c3ccccc3)c2C)cc1` came in with a z-score of -0.292.

As for `CN1CCN(C(=O)CN(Cc2ccc(Cl)cc2)S(C)(=O)=O)CC1`, the z-score was determined as 0.244.

On to `Cn1c(-c2sc3cc(C(F)(F)F)cnc3c2-c2cccnc2)n[nH]c1=S`, for which the z-score was -0.0472.
